The text below walks through data of publication PMC12136788.

B1: chr8:109229674:109229675:-_ENSG00000104408_ENST00000220849|hu_mus|FALSE|FALSE (ssRNA)
RNA: GGGAGUUCUACAGUCCGACGAUCGUUGGUUAUGACGGCAGUAGUCAAAUAGCGUAGAAUAUGUGGACACAUUGUCUGAAUUGCAUUAAGAUACUGUGGUUGGUAAAGGAAGAGAUCAAUAAUGUUAUCACGGCCCUUUGGAUGCAACAGAGGAUUGAGCAUCA
B2: 27877177_27877297_2358_CDS_ENSG00000126705_ENST00000374011|human|control|control (ssRNA)
RNA: GGGAGUUCUACAGUCCGACGAUCUACGGGGAUCUUGGCCAUCUUCACCACCAUGCGCCGCACGCCCCGGCACUUGCCUUUGCGGGUAGAGACCACUGGGGUCUGGGAAGAUUCCGGCUUCAACUCUGGGACUGAGACCGGGCCCAACAGAGGAUUGAGCAUCA
B3: chr13:100193941:100193942:-_ENSMUSG00000052727_ENSMUST00000064762|mus_hu|FALSE|FALSE (ssRNA)
RNA: GGGAGUUCUACAGUCCGACGAUCAUUUUCUCUAAACUCUACAUGAACCGUAGGAGUUGAGAAUUCAUUUGUUUUCAAUGUACUAUUUCUUUUAUUUUUUUUUUCCAGAAAAGAAAAUCCCAAAGCAAAUUUGUGCUAGGGUUCCAACAGAGGAUUGAGCAUCA
B4: chr17:40995140:40995141:+_ENSG00000131467_ENST00000293362|hu_mus|FALSE|FALSE (ssRNA)
RNA: GGGAGUUCUACAGUCCGACGAUCCAUGGUAAAAGAAUUUUACAUUACAAUCCAAGGAAGGAGGGGCAGAGGGACAAUCAAACAAAAGGAAAACCAAGAAACACAUGGUGGGGGGAGGGGAGGGGCUCAGCUGGAAGGGAUCUGCAACAGAGGAUUGAGCAUCA
B5: chr16:94651144:94651145:+_ENSMUSG00000040785_ENSMUST00000117648|mus_hu|mus_mus_mus_hu_True|18_108 (ssRNA)
RNA: GGGAGUUCUACAGUCCGACGAUCAUUCUCUUGGAUCAAGUGGCGAAUAACAUAGUCCACUGCUUCAUUUAGAAAAUUUCUGCUAGAAAAACAGGUUGUAUAGUCUUCUGUGCUCAAAACCUUCCAAGAAAGCAAUUCUUUGAGCAACAGAGGAUUGAGCAUCA
B6: 56803057_56803840_1029_CDS_ENSMUSG00000028431_ENSMUST00000030140|mouse|control|control (ssRNA)
RNA: GGGAGUUCUACAGUCCGACGAUCAAGCACCGAGGAAUCUGCAUUCCACAGCAGGUCAUUUACCUUAACUUCAUCUUUUAAGAAAGGAAGUGUAAAAUGUCCAUGAAGAAGUCCAUUUUUCUCAAAAAACACAACAUCUUGCUGCAACAGAGGAUUGAGCAUCA
B7: chr5:21408736:21408737:-_ENSMUSG00000042453_ENSMUST00000161356|mus_hu|mus_mus_mus_hu_False|8_98 (ssRNA)
RNA: GGGAGUUCUACAGUCCGACGAUCGUUGACAGAGUUGUAAAUGGUGGCUUCAUGGAACUGGAAAGGGGAGCAGCCAAUGCUGUUAGAAGAGGAAGGAAGGCACUGGGUCUGUACGAGCUGCCAGGAAUCGGACCUUGCAUCCUUCAACAGAGGAUUGAGCAUCA
B8: chr1:84735391:84735392:-_ENSMUSG00000026219_ENSMUST00000027421|perfect_dup|FALSE|FALSE (ssRNA)
RNA: GGGAGUUCUACAGUCCGACGAUCCAUUGCUCGGUCCCGAUCAAAUGCAGUUACAUAAAAAAGCAUUUGCCGGGUAUCAAAAGGAAAGAAAAAUGGGCAGGUUUUUCCUAGCUCAGUAAGCCAUGUUGGGAUGUUUCCUGUCAUCAACAGAGGAUUGAGCAUCA
B9: chr9:14812383:14812384:-_ENSMUSG00000031934_ENSMUST00000164273|mus_mus|mus_mus_mus_hu_True|38_78 (ssRNA)
RNA: GGGAGUUCUACAGUCCGACGAUCAUAGCCCAGGUAGAUACACGCUAACAGUAUAAUCACAAAUGUCAGCAGGCGGCAGCUAAUGUACUUGAUGAUUAAAUGACUAGAAUUUUUCUUUGUCUUCAAGUACUGCUCCACAAUUGGCAACAGAGGAUUGAGCAUCA
B10: chr6:86474593:86474594:-_ENSMUSG00000051695_ENSMUST00000053015|mus_mus|motif|central (ssRNA)
RNA: GGGAGUUCUACAGUCCGACGAUCCAUUUCUUAUCGACAAACAGAAAAUAAAAUCCAUGAGCCAAAAAAACCCAAACGAAACGGAAAACAGGGAAAAGCUUAUAAAACUAAAUAUGGAUCCCAGCAUUAACGGCUGAACAGAGACAACAGAGGAUUGAGCAUCA
B11: chr9:91931296:91931297:+_ENSG00000123975_ENST00000314355|hu_mus|FALSE|FALSE (ssRNA)
RNA: GGGAGUUCUACAGUCCGACGAUCAGAUUAGAUGAUCCCAGCUGCACUUCAUUUUUGUUGUUCUUUUGGAAGAGGUCGUCUAAAGAGAAGAAUAUGCGGUUCUGGCUCAUGAAUCAUGUAAUGAACCCAUCCUAGACUCUGUUGCAACAGAGGAUUGAGCAUCA
B12: 16560896_16561016_1087_3pUTR_ENSMUSG00000025939_ENSMUST00000117146|mouse|control|control (ssRNA)
RNA: GGGAGUUCUACAGUCCGACGAUCUAAUCCCACAACAACUGAUAAAUUCAUUUCAUAGGCCCUAUCAUGCAUUAAUCACCAAGUGGCAGGAGUUAAGAAAACUCUUCCUUUUACAACGUCCAUUGCCGGCAAUGAACGUCCCCACAACAGAGGAUUGAGCAUCA
B13: chr4:17845017:17845018:+_ENSG00000109805_ENST00000514176|hu_mus|hu_hu_hu_mus_False|18_38 (ssRNA)
RNA: GGGAGUUCUACAGUCCGACGAUCGCUCUCUUAACUUGUAUCUUCAUUAAGGAACUCUGCAAGGUUAAGUUUACUUUUCUGUAGCGCAGCUGUUUUGCUCGUCUUGGGUAAUCUCAUUUCAUUUCUGGAUGGUGGUUCAUGAUCCAACAGAGGAUUGAGCAUCA
B14: chr11:106642694:106642695:-_ENSMUSG00000020719_ENSMUST00000021062|mus_mus|FALSE|FALSE (ssRNA)
RNA: GGGAGUUCUACAGUCCGACGAUCAAUCUGGAAUUAUAAAAUCCAUUGUCUCUAACUUCUUCCCAUACAAACAGAUCAUCCUAAGGGCCUUCUGAGUUCCUCUCCUAAAUCCAGGAAUGGGAAGUAGUCAACUUUCCUUGUGUACAACAGAGGAUUGAGCAUCA
B15: chr11:77336104:77336105:-_ENSG00000074201_ENST00000525064|hu_mus|hu_hu_hu_mus_False|18_88 (ssRNA)
RNA: GGGAGUUCUACAGUCCGACGAUCCUCACACAUUGCUGUGAACAUCGCCUCCAACGCUGACUUAUCACUGGGCACAAAUCGAAAUUCAGAAAUGGGUUCAACAUCAUCAUUGUCUUCUUCCUCUUCUUCAGAGAGAGGUUCUUUCAACAGAGGAUUGAGCAUCA
B16: chr8:95500983:95500984:-_ENSG00000164944_ENST00000437199|hu_hu|hu_hu_hu_mus_True|68_88 (ssRNA)
RNA: GGGAGUUCUACAGUCCGACGAUCAGAACACAUCUAUCGAGUAAAGGGAGCGUACAUACGGCCUCUAACCACUGCCUCACUAACAAACUUUCCUCUCGAGCCUCCACUGCCGCUAUUUGUACUAGCCCAGGACGGUCCCAGGCCCAACAGAGGAUUGAGCAUCA
B17: chr8:27252840:27252841:+_ENSMUSG00000013878_ENSMUST00000014022|mus_mus|motif|central (ssRNA)
RNA: GGGAGUUCUACAGUCCGACGAUCCAUGUCACAGCCAUCAAAGACAACCAAAUCAGUAUGAACCUCAGUAGUUAGGCGUCGGAUACACAUUUCCUCAUUCUGCCCAAGGCACGAUGAAUCUGAGCCAAAUAAUGCCAUCUACAACAACAGAGGAUUGAGCAUCA
B18: chr14:21319760:21319761:-_ENSMUSG00000021816_ENSMUST00000161445|mus_mus|motif|central (ssRNA)
RNA: GGGAGUUCUACAGUCCGACGAUCAGCCAGCAGCAAAUCACCCUGGUGGUUUUUAAAGCAACUGGAGUACUCACAAUAAACGGAAAUUUCUCAUAAUAUCUACGUAACCUAUACAUGUUGUACCUGUACAUCAUAGGUCUAUAUCAACAGAGGAUUGAGCAUCA
B19: 18853758_18856852_6590_CDS_ENSG00000157106_ENST00000446231|human|control|control (ssRNA)
RNA: GGGAGUUCUACAGUCCGACGAUCUUGCAAACUUAGCAUUAUCUCUUUAAAUGGAAUCCAGCUGCUCCCAGGCUUUGCAGGGUUCAAUGGAGUCUUCAGUUUUUCUAGGGCAUUUUCAAUGGCAUCACCAUAGUUAUCCUGAAACAACAGAGGAUUGAGCAUCA
B20: chr7:127792870:127792871:+_ENSMUSG00000030884_ENSMUST00000033176|mus_mus|FALSE|FALSE (ssRNA)
RNA: GGGAGUUCUACAGUCCGACGAUCUGUGAAGUGGUUCUGAACAAAGUAAUGUAAUUCCUCUGAUGUUAUCUUCCCCAUCCUAUAGUCAGGACAGUACAAAGGAUUAGCCAAGGCAUUCUUGUAGGCAACAUCAUGCAAGUUCUCCAACAGAGGAUUGAGCAUCA
B21: chr1:220276048:220276049:+_ENSG00000067704_ENST00000302637|hu_hu|hu_hu_hu_mus_True|18_88 (ssRNA)
RNA: GGGAGUUCUACAGUCCGACGAUCGCAAAUUGCCUGGUUGGCGGGAAUCGUCCAAGGCUGGGUGGUCCAAACUAAAACGCUAACAGGGGAUGAGGCAUCUGUAAGAGACUCCAACUUUGGAGAAGGCCUCAGGAGGGGGAAUCUCAACAGAGGAUUGAGCAUCA
B22: chr4:41262718:41262719:+_ENSG00000154277_ENST00000284440|perfect_dup|motif|central (ssRNA)
RNA: GGGAGUUCUACAGUCCGACGAUCUCCGAUUGUGCCACAGGAAUUCCCAAUGGUCUGCUUCAUGAAGUACACUUUAGGACGGACUUCUUGUCCCUUCAGCUCUUCAAUCUGCUUUUUCCUGAAGUUCUCAUGCUGGGCCGUGAGCAACAGAGGAUUGAGCAUCA

The other results are listed elsewhere or left out.

The experiment deals with T1, UNK ZnF1-3 (human, UniProt Q9C0B0 31-174).
T1 sequence: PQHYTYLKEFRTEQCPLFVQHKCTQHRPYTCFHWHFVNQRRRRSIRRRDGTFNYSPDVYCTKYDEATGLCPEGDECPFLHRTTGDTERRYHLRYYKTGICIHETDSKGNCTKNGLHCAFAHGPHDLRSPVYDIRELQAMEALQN
As to the kind of experiment: nsRBNS (natural sequence RNA bind-n-seq); RBNS binding buffer (assumed for nsRBNS): 25 mM Tris pH 7.5, 150 mM KCl, 3 mM MgCl2, 0.01% Triton X-100, 500 ug/ml BSA, 20 U/ml SUPERase-In, 4 C; UNK is unkempt and MSI1 is Musashi-1; names of the RNAs are library labels; protein concentration not given here; high values mean tight binding.
Regarding B1, the binding signal was 1.54 enrichment R. B2 displayed a binding signal of 1.03 enrichment R. On to B3, for which the binding signal worked out at 0.796 enrichment R. B4 yielded a binding signal of 2.36 enrichment R. Regarding B5, the binding signal came out at 0.716 enrichment R.

Turning to B6, the binding signal was 1.02 enrichment R. The molecule B7 came in with a binding signal of 1.49 enrichment R.

For B8, the binding signal worked out at 0.656 enrichment R. In turn, B9 displayed a binding signal of 1.15 enrichment R. B10 showed a binding signal of 2.72 enrichment R.

Take B11: the binding signal is 1.08 enrichment R. As for B12, the binding signal worked out at 1.03 enrichment R.

B13 yielded a binding signal of 0.379 enrichment R. B14 registered a binding signal of 0.664 enrichment R. Regarding B15, the binding signal worked out at 0.997 enrichment R. The molecule B16 yielded a binding signal of 1.25 enrichment R. B17 yielded a binding signal of 1.2 enrichment R. Take B18: the binding signal amounted to 1.26 enrichment R.

B19 displayed a binding signal of 1.01 enrichment R.

As for B20, the binding signal was determined as 1.06 enrichment R.

The molecule B21 came in with a binding signal of 2.21 enrichment R.

B22: the binding signal was found to be 0.827 enrichment R.
